# According to article PMC4336329 (PLoS ONE, 2015):
# Among all 310,000 compounds or so, about 2,200 (0.71%) showed an effect of 50% or more. Effects have a minus sign here. The list shows a part of the results.
# Biological target: human ether-à-go-go-related gene (hERG) potassium channel (human, UniProt Q12809)
# Experiment: primary screen, population patch clamp on CHO cells stably expressing hERG
# Sequence of human ether-à-go-go-related gene (hERG) potassium channel (Q12809 whole entry, looked up): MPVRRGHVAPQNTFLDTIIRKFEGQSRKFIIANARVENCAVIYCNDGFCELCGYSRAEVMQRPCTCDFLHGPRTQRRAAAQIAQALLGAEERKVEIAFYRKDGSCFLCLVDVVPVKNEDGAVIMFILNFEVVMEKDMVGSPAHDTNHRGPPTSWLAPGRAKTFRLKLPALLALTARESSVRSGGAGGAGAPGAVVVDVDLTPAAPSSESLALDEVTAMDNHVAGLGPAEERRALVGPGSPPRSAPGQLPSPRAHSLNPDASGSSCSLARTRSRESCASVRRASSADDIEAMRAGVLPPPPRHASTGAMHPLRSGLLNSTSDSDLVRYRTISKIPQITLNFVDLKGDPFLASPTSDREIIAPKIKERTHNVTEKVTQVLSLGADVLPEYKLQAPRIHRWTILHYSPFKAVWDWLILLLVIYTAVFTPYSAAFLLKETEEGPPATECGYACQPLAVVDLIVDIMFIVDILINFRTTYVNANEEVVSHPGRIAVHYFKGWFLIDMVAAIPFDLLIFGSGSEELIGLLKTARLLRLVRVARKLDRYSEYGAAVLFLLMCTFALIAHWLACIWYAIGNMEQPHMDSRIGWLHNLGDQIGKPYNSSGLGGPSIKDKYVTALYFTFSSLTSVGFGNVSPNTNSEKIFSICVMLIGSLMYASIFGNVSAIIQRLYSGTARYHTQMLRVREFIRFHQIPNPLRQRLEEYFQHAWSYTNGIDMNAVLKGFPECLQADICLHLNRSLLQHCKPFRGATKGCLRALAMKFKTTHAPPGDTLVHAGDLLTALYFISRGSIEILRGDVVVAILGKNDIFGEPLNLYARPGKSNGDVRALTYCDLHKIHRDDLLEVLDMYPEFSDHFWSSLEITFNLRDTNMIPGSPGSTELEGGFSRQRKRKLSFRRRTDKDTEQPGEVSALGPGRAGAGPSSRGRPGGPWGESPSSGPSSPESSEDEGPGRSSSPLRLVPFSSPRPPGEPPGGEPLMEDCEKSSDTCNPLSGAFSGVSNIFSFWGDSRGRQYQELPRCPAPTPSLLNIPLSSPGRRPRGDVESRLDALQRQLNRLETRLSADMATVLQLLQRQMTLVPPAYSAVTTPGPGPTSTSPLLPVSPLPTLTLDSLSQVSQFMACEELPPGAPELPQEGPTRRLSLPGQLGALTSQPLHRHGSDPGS
row,Structure (SMILES),"hERG current change (%, negative = inhibition) at 1uM"
1,O=C(NCc1cccc(Cl)c1)c1cccc(C(F)(F)F)c1,17.2%
2,CCOCCCNC(=O)CCn1ccc2cc(S(=O)(=O)N3CCCC3)ccc21,16.5%
3,CC(/C=C/c1ccccc1)=N\NC(=O)Cn1cncn1,12.6%
4,CCOC(=O)Cc1nnc(NC(=O)CC)s1,3.85%
5,Br.C=CCn1c(=N)n(CC(=O)O)c2ccccc21,10.3%
6,O=CC1=C(c2ccccc2)Oc2ccccc2O1,13.3%
7,CCOC(=O)C1(Cc2cccc(OC)c2)CCCN(Cc2nccn2CC)C1 (centres unmarked),-13.5%
8,O=[N+]([O-])c1ccc(N2CCN(CCO)CC2)c2ncccc12,-3.63%
9,Cc1cc(C(=O)NCCCN2CCOCC2)n(-c2ccccc2)n1,17.4%
10,O=C(COC(=O)/C=C/c1cccc(Cl)c1)Nc1cccc(S(=O)(=O)NC2=NCCC2)c1,-3.89%
11,C/C(=N/NC(=O)c1cccs1)c1c(C)[nH]n(-c2nc3ccccc3s2)c1=O,-1.9%
12,CN(C)CCn1ccc(O)c(Cc2ccc(Cl)cc2)c1=O,10.3%
13,COc1ccc2c(c1OC)C(=O)OC2Nc1ccc(S(=O)(=O)N=C(N)N)cc1 (centres unmarked),16.8%
14,CCOC(=O)C1=C(c2ccccc2)N(C)C(=O)NC1c1ccc(OC(F)F)c(OC)c1 (centres unmarked),17%
15,CCCCC(=O)NS(=O)(=O)c1ccc(N=NN2CCCCC2)cc1,6.95%
16,OCCN1CCN(Cc2cc(Br)cc(Br)c2O)CC1,-22.2%
17,COc1ccccc1C(=O)Nc1nc2ccccc2[nH]1,10.9%
18,COc1ccc(/C(C)=N/NC(=O)CNC(=O)c2ccncc2)cc1,7.95%
19,Cc1ccc2nc(NC(=O)C3CCN(C(=O)c4ccc(F)cc4)CC3)sc2c1,-8.44%
20,Cl.Clc1ccc2nsnc2c1NC1=NCCN1,1.83%
21,CNC(=S)Nc1cc2oc3ccccc3c2cc1OC,20.5%
22,COc1cccc(CN(C)C(=O)CCN(c2ccccc2)S(=O)(=O)c2ccc(C)cc2)c1OC,2.71%

row,Structure (SMILES),"hERG current change (%, negative = inhibition) at 1uM"
1,COc1ccc(-c2nc(CSCC(=O)NCCC3=CCCCC3)c(C)o2)cc1OC,-2.02%
2,COc1ccc(OC)c(C2=NOC(C(=O)Nc3c(C)n(C)n(-c4ccccc4)c3=O)C2)c1 (centres unmarked),14.2%
3,Cc1ccc(NC(=O)C2CCN(S(=O)(=O)c3ccc4c(c3)NC(=O)CO4)CC2)cc1C,-9.52%
4,CCOc1cc(NC(=S)NC)c(OCC)cc1NC(=O)c1cccs1,-5.42%
5,CCOC(=O)c1sc(-c2ccc(OC)cc2)cc1N,-4.37%
6,Cc1ccc(-c2nnc(C)c(N3CCOCC3)n2)cc1,7.09%
7,O=C(COC(=O)c1ccc(F)cc1)NC1CC1,12.5%
8,O=C1C(Cc2ccccc2)NC(=S)N1Cc1ccccc1 (centres unmarked),13.6%
9,C/C(=C\c1ccc2c(c1)OCO2)C1Nc2cccc3cccc(c23)N1,11.2%
10,COc1ccccc1NS(=O)(=O)c1ccc(N/N=C/c2c(C)nn(-c3ccccc3)c2N2CCCC2)c([N+](=O)[O-])c1,-1.38%
11,Cc1ccc(NC(=O)c2cccc(F)c2)cc1S(=O)(=O)N1CCCCCC1,11.7%
12,Cc1cc(NC(=O)c2cc(-c3ccco3)on2)no1,-0.508%
13,COc1ccc(C(=O)C2CCCN(C(=O)c3csc(C(C)=O)c3)C2)c(C)c1 (centres unmarked),10.1%
14,COc1ccc(S(=O)(=O)n2cccc2)cc1,16.6%
15,Cc1ccc(-c2noc(CCC(=O)NCCc3ccccc3Cl)n2)cc1,13.1%
16,C[C@@H]1CC=C[C@H]2[C@H]1C(=O)N(Cc1ccccc1)[C@H]2c1ccc(C(F)(F)F)cc1,15.5%
17,COC(=O)[C@@H]1CC[C@H](C)[C@@H](c2ccc(C)cc2)N1C(=O)c1ccc(/C=N/OCC[C@@H]2C=C[C@H](OC(C)=O)[C@@H](COC(C)=O)O2)cc1,11.3%
18,COc1ccc(NC(=O)C2CCCN(C(=O)c3ccc(Cl)cc3)C2)cc1S(=O)(=O)N(C)C (centres unmarked),0.0339%
19,CCCCN1C(=O)NC(NC(=O)c2ccco2)(C(F)(F)F)C1=O (centres unmarked),3.23%
20,COc1ccc(NC(=O)CS(=O)(=O)Cc2nc(-c3ccc(C)cc3)oc2C)cc1,-2.62%
21,CC(C)(C)C1CCC(=NNC(=O)c2cc(-c3ccccc3)n[nH]2)CC1 (centres unmarked),10.2%
22,Cc1cc(F)ccc1NC(=O)C(C)n1c2ccccc2c2nc(=O)cc(C)n21 (centres unmarked),8.53%
